# Assay results reported in the supplement of paper PMC7826260.
# This is one part of the list. Cleavage of a single-stranded DNA pool by Rep nickase domains was read by sequencing (3 µM enzyme, 1 h, 37 °C); shown is the middle of each 90-letter strand. Values are log2 of uncut reads against the no-enzyme pool; uncut sequences lie near 0, cut ones below; no hit call is given. The scaling is to total reads; values above 0 arise when much of the pool is cut.
# Legend:
# Assay in all cases: uncleaved DNA left, log2 of reads against the no-enzyme library (log2 ratio); higher = less cleavage (more negative = more Rep cleavage of the k-mer); sequences stand for … in CTCGTCCG…ACCGGAGA
# [1] = system: T1, Rep nickase domain of Muscovy duck circovirus
# T1 sequence (Rep 1-111, printed without the tag): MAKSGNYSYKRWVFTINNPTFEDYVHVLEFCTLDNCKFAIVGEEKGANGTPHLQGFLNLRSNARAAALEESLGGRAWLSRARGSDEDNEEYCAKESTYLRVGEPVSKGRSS
# Protocol: (§1)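 A pool of 90-nt single-stranded DNAs with seven random bases just before the constant AC of the nick site (name = the seven bases) was cut by 3 µM recombinant His6-SUMO-tagged Rep nickase domain (300 nM DNA, 50 mM HEPES pH 8.0, 50 mM NaCl, 1 mM MnCl2, 1 h, 37 °C, three replicates). Uncut DNA was amplified and sequenced.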
# [2] = system: T2, Rep nickase domain of banana bunchy top virus
# T2 sequence (Rep 1-94, printed without the tag): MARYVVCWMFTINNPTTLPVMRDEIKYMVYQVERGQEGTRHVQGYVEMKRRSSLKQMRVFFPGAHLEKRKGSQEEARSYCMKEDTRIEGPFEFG
# Protocol: as §1
# [3] = system: T3, Rep nickase domain of cabbage leaf curl virus
# T3 sequence (Rep 1-116, printed without the tag): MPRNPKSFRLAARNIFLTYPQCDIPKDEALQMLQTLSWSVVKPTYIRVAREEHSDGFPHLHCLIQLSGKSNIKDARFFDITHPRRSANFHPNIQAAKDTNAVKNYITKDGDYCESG
# Protocol: as §1
# [4] = system: T4, Rep nickase domain of chickpea chlorotic dwarf virus
# T4 sequence (Rep 1-124, printed without the tag): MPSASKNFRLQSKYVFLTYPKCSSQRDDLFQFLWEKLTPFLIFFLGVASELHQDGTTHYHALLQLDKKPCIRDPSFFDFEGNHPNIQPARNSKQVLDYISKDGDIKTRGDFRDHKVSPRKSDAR
# Protocol: as §1
# [5] = system: T5, Rep nickase domain of faba bean necrotic yellows virus
# T5 sequence (Rep 1-98, printed without the tag): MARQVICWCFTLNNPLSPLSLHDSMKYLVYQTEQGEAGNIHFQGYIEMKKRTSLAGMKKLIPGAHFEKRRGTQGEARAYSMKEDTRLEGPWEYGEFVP
# Protocol: as §1
# [6] = system: T6, Rep nickase domain of maize striate mosaic virus
# T6 sequence (Rep 1-117, printed without the tag): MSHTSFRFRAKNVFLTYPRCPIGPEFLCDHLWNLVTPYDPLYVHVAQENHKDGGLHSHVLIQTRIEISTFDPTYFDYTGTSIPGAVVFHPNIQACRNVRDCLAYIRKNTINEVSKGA
# Protocol: as §1
# [7] = system: T7, Rep nickase domain of porcine circovirus 2
# T7 sequence (Rep 2-116, printed without the tag): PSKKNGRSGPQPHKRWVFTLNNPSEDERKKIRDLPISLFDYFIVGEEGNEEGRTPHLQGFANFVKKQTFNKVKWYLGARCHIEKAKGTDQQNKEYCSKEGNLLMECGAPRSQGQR
# Protocol: as §1
# [8] = system: T8, Rep nickase domain of tomato golden mosaic virus
# T8 sequence (Rep 1-124, printed without the tag): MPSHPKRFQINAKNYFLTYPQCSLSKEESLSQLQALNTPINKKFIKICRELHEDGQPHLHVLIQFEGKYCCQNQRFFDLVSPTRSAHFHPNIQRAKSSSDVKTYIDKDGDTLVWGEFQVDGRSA
# Protocol: as §1
# [9] = system: T9, Rep nickase domain of tomato yellow leaf curl virus
# T9 sequence (Rep 1-136, printed without the tag): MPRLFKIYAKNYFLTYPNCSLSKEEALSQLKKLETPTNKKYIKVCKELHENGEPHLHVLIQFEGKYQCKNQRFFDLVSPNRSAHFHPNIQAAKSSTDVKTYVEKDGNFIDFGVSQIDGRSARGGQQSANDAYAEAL
# Protocol: as §1
# [10] = system: T10, Rep nickase domain of wheat dwarf virus
# T10 sequence (Rep 1-137, printed without the tag): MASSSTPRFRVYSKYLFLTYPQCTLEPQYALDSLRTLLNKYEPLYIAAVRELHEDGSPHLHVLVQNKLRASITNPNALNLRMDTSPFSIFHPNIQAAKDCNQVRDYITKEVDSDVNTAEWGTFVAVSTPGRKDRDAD
# Protocol: as §1
Sequence,uncleaved DNA left (log2) [1],uncleaved DNA left (log2) [2],uncleaved DNA left (log2) [3],uncleaved DNA left (log2) [4],uncleaved DNA left (log2) [5],uncleaved DNA left (log2) [6],uncleaved DNA left (log2) [7],uncleaved DNA left (log2) [8],uncleaved DNA left (log2) [9],uncleaved DNA left (log2) [10]
GACCTTC,-0.0882,-0.0829,0.174,0.512,0.0275,0.509,-0.0567,-0.0575,-0.0201,-0.0172
AACACTT,-0.281,-0.637,-0.514,-2.9,-0.0525,-0.352,-2.85,-0.273,-0.23,-0.23
ATAGTGT,0.135,0.102,0.0299,0.153,0.0467,-0.172,0.077,0.143,0.148,0.0526
CATGCCA,-0.145,-0.103,-0.46,-1.75,-0.0893,-1.25,-0.145,-0.0471,-0.2,-0.209
TCGTGTA,-0.00515,0.0754,0.0595,-0.416,-0.0253,-0.0748,-0.935,0.131,0.0415,-0.0658
GGGGGTG,-0.00233,-0.0174,0.443,1.07,0.0719,1.65,0.262,-0.0236,-0.0835,-0.066
TAGGTTG,0.0317,-0.129,-0.0398,0.0459,0.0535,-0.126,0.0733,0.111,-0.0549,0.0809
GCAGCCG,-0.0408,-0.0188,-0.966,-0.357,-0.0705,-0.916,0.0682,-0.0209,-0.024,-0.105
CAAGGCA,0.0767,0.0767,-0.00641,-0.0906,0.0435,-0.577,0.00622,-0.0077,0.0722,0.0617
AGAAGAA,0.148,0.0612,0.162,0.316,0.0763,-0.393,0.0849,0.144,0.00265,0.0482
CTGCGTG,0.187,0.104,-0.571,-0.502,0.131,-1.14,0.385,0.0714,0.194,0.153
TAGGGTA,0.0893,-0.0618,0.406,0.707,-0.0994,1.6,-0.273,0.138,-0.102,0.102
TATTATA,-3.22,-1.65,-0.0951,-2.83,0.0179,-0.463,-3.04,-0.00929,0.00339,-0.0956
GGGCTCC,0.00562,-0.0649,0.337,1.12,0.0283,1.08,0.12,-0.18,-0.114,0.0249
GTGACTA,0.101,0.27,0.522,1.44,0.0276,2.08,0.266,0.0814,0.188,0.315
GCCCAGT,-0.125,0.0494,0.0719,0.156,-0.0857,-0.219,0.0404,0.0642,0.0541,0.124

Sequence,uncleaved DNA left (log2) [1],uncleaved DNA left (log2) [2],uncleaved DNA left (log2) [3],uncleaved DNA left (log2) [4],uncleaved DNA left (log2) [5],uncleaved DNA left (log2) [6],uncleaved DNA left (log2) [7],uncleaved DNA left (log2) [8],uncleaved DNA left (log2) [9],uncleaved DNA left (log2) [10]
CAGCCGA,0.0526,-0.141,-0.46,-0.578,-0.108,-0.806,0.0487,0.0735,0.0324,-0.0983
CTTGGCC,-0.00458,-0.0156,-0.298,-0.534,-0.074,-0.801,-0.0908,-0.0983,-0.0429,-0.0491
TAATCGG,0.00196,-0.00389,0.248,1.29,-0.0564,1.84,0.0515,0.0602,-0.11,0.00771
AAAAACC,-0.0362,-0.0381,-0.123,-1.1,-0.0187,-0.705,-0.31,-0.00106,0.00303,0.00993
ACGACCA,-0.0786,-0.0213,-0.0379,-0.112,-0.0228,0.134,0.00887,-0.0452,-0.161,0.00459
GGTCGGG,0.045,-0.109,0.519,0.957,-0.0219,1.13,0.171,0.0231,0.0847,0.0735
AACAACA,0.094,0.00147,-0.25,-2.51,0.102,-0.832,-0.0546,-0.0299,-0.0999,-0.0111
GAGACCG,-0.035,0.0811,-0.216,-0.0309,-0.0597,-0.43,0.228,-0.0309,0.109,0.0688
TCGGCTA,0.0876,-0.0186,0.0493,-0.103,-0.0537,0.468,-0.0565,-0.121,-0.194,0.0184
TAGATGC,0.034,-0.088,-0.43,-0.554,0.0518,-1.22,0.0338,0.0549,-0.0871,0.00519
CAACGGG,0.0808,-0.0387,-0.249,-0.217,0.0378,-0.714,0.258,0.149,0.168,-0.0199
CACGGTG,-0.0657,-0.0579,-0.55,-0.628,0.058,-0.835,0.0767,0.159,0.188,-0.0496
TAGATAT,0.0613,-0.477,-0.608,-1.49,-0.137,0.635,-3.43,-0.0569,0.0683,-0.098
TTGGAAA,0.0142,-0.0299,0.353,0.77,0.018,0.575,0.0164,0.114,-0.0249,0.0191
CCGAGTT,0.0523,-0.104,0.0615,-1.01,0.05,0.229,-0.308,0.0589,-0.054,-0.164
